Experimental data: publication PMC9911399, “Two distinct binding modes provide the RNA-binding protein RbFox with extraordinary sequence specificity”
Substitutions are numbered along the chain they refer to; changes in the protein carry UniProt numbers. The list shows a part of the results.

B1: UCUGAAC (DNA:RNA)
RNA: GGGAGACCGGAAUUCAGAUUGUCCUCUGAACUUAAAUCCCGUCGUAGCCACCA
DNA 1: CAATCTGAATTCCGGTCTCCC
DNA 2: TGGTGGCTACGACGGGATT
B2: CUCAGUA (DNA:RNA)
RNA: GGGAGACCGGAAUUCAGAUUGUCCCUCAGUAUUAAAUCCCGUCGUAGCCACCA
DNA 1: CAATCTGAATTCCGGTCTCCC
DNA 2: TGGTGGCTACGACGGGATT
B3: AUCUCCA (DNA:RNA)
RNA: B2 RNA with C25A, A28U, G29C, U30C
DNA 1: CAATCTGAATTCCGGTCTCCC
DNA 2: TGGTGGCTACGACGGGATT
B4: AAAGCGC (DNA:RNA)
RNA: B1 RNA with U25A, C26A, U27A, A29C, A30G
DNA 1: CAATCTGAATTCCGGTCTCCC
DNA 2: TGGTGGCTACGACGGGATT
B5: GGUGUAU (DNA:RNA)
RNA: B1 RNA with U25G, C26G, A29U, C31U
DNA 1: CAATCTGAATTCCGGTCTCCC
DNA 2: TGGTGGCTACGACGGGATT
B6: CACGUUC (DNA:RNA)
RNA: B2 RNA with U26A, A28G, G29U, A31C
DNA 1: CAATCTGAATTCCGGTCTCCC
DNA 2: TGGTGGCTACGACGGGATT
B7: CGGACCU (DNA:RNA)
RNA: B2 RNA with U26G, C27G, G29C, U30C, A31U
DNA 1: CAATCTGAATTCCGGTCTCCC
DNA 2: TGGTGGCTACGACGGGATT
B8: GCCCGUU (DNA:RNA)
RNA: B2 RNA with C25G, U26C, A28C, A31U
DNA 1: CAATCTGAATTCCGGTCTCCC
DNA 2: TGGTGGCTACGACGGGATT
B9: GCUAUUC (DNA:RNA)
RNA: B1 RNA with U25G, G28A, A29U, A30U
DNA 1: CAATCTGAATTCCGGTCTCCC
DNA 2: TGGTGGCTACGACGGGATT
B10: GUACCAG (DNA:RNA)
RNA: B2 RNA with C25G, C27A, A28C, G29C, U30A, A31G
DNA 1: CAATCTGAATTCCGGTCTCCC
DNA 2: TGGTGGCTACGACGGGATT
B11: GAGCGAG (DNA:RNA)
RNA: B2 RNA with C25G, U26A, C27G, A28C, U30A, A31G
DNA 1: CAATCTGAATTCCGGTCTCCC
DNA 2: TGGTGGCTACGACGGGATT
B12: GUGCGAU (DNA:RNA)
RNA: B2 RNA with C25G, C27G, A28C, U30A, A31U
DNA 1: CAATCTGAATTCCGGTCTCCC
DNA 2: TGGTGGCTACGACGGGATT
B13: GUUUGUA (DNA:RNA)
RNA: B2 RNA with C25G, C27U, A28U
DNA 1: CAATCTGAATTCCGGTCTCCC
DNA 2: TGGTGGCTACGACGGGATT
B14: AACGGGC (DNA:RNA)
RNA: B2 RNA with C25A, U26A, A28G, U30G, A31C
DNA 1: CAATCTGAATTCCGGTCTCCC
DNA 2: TGGTGGCTACGACGGGATT
B15: UAAAAAA (DNA:RNA)
RNA: B1 RNA with C26A, U27A, G28A, C31A
DNA 1: CAATCTGAATTCCGGTCTCCC
DNA 2: TGGTGGCTACGACGGGATT
B16: GAUCUAC (DNA:RNA)
RNA: B1 RNA with U25G, C26A, G28C, A29U
DNA 1: CAATCTGAATTCCGGTCTCCC
DNA 2: TGGTGGCTACGACGGGATT
B17: CUCCUGC (DNA:RNA)
RNA: B2 RNA with A28C, G29U, U30G, A31C
DNA 1: CAATCTGAATTCCGGTCTCCC
DNA 2: TGGTGGCTACGACGGGATT
B18: UAACGUA (DNA:RNA)
RNA: B2 RNA with C25U, U26A, C27A, A28C
DNA 1: CAATCTGAATTCCGGTCTCCC
DNA 2: TGGTGGCTACGACGGGATT
B19: AUCUAUU (DNA:RNA)
RNA: B2 RNA with C25A, A28U, G29A, A31U
DNA 1: CAATCTGAATTCCGGTCTCCC
DNA 2: TGGTGGCTACGACGGGATT
B20: UUGGGUU (DNA:RNA)
RNA: B2 RNA with C25U, C27G, A28G, A31U
DNA 1: CAATCTGAATTCCGGTCTCCC
DNA 2: TGGTGGCTACGACGGGATT
B21: AUCUCAG (DNA:RNA)
RNA: B2 RNA with C25A, A28U, G29C, U30A, A31G
DNA 1: CAATCTGAATTCCGGTCTCCC
DNA 2: TGGTGGCTACGACGGGATT
B22: ACGCUGG (DNA:RNA)
RNA: B1 RNA with U25A, U27G, G28C, A29U, A30G, C31G
DNA 1: CAATCTGAATTCCGGTCTCCC
DNA 2: TGGTGGCTACGACGGGATT
B23: UGUAAUA (DNA:RNA)
RNA: B2 RNA with C25U, U26G, C27U, G29A
DNA 1: CAATCTGAATTCCGGTCTCCC
DNA 2: TGGTGGCTACGACGGGATT
B24: ACAUAAA (DNA:RNA)
RNA: B1 RNA with U25A, U27A, G28U, C31A
DNA 1: CAATCTGAATTCCGGTCTCCC
DNA 2: TGGTGGCTACGACGGGATT
B25: AGUGACG (DNA:RNA)
RNA: B1 RNA with U25A, C26G, A30C, C31G
DNA 1: CAATCTGAATTCCGGTCTCCC
DNA 2: TGGTGGCTACGACGGGATT
B26: UCUCAGA (DNA:RNA)
RNA: B1 RNA with G28C, A30G, C31A
DNA 1: CAATCTGAATTCCGGTCTCCC
DNA 2: TGGTGGCTACGACGGGATT
B27: GCUCGAU (DNA:RNA)
RNA: B1 RNA with U25G, G28C, A29G, C31U
DNA 1: CAATCTGAATTCCGGTCTCCC
DNA 2: TGGTGGCTACGACGGGATT
B28: GGCUAAC (DNA:RNA)
RNA: B1 RNA with U25G, C26G, U27C, G28U
DNA 1: CAATCTGAATTCCGGTCTCCC
DNA 2: TGGTGGCTACGACGGGATT
B29: UACGGCA (DNA:RNA)
RNA: B2 RNA with C25U, U26A, A28G, U30C
DNA 1: CAATCTGAATTCCGGTCTCCC
DNA 2: TGGTGGCTACGACGGGATT
B30: CAGAGAU (DNA:RNA)
RNA: B2 RNA with U26A, C27G, U30A, A31U
DNA 1: CAATCTGAATTCCGGTCTCCC
DNA 2: TGGTGGCTACGACGGGATT
B31: GGCUGUC (DNA:RNA)
RNA: B2 RNA with C25G, U26G, A28U, A31C
DNA 1: CAATCTGAATTCCGGTCTCCC
DNA 2: TGGTGGCTACGACGGGATT

Target: T1, RBFOX1 RRM (Homo sapiens, UniProt Q9NWB1 109-208)
T1 sequence: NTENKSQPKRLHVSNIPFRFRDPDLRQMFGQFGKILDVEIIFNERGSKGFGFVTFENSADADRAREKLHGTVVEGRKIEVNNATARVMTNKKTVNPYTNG
Test: EMSA; HiTS-Eq, 1 nM pool, 10 min; buffer printed only for the single-RNA assays: 10 mM Tris pH 7.5, 150 mM NaCl, 3.4 mM EDTA, 0.001% NP-40, 30 C
Settings: tags: His6 N-terminal (pET28a); label: 5' 32P
Method in brief: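 Purified wild-type or mutant RbFox RRM at increasing concentrations was equilibrated with 1 nM of 5′-radiolabelled RNA carrying 7 randomized nucleotides for 10 min in 50 µL. Unbound RNA was separated by 8% native PAGE and sequenced. Relative association constants came from read-count changes of each RNA species compared with the control reaction, normalised to the cognate motif.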

In order of falling binding signal:
1. B31  0.0306 KA relative to UGCAUGU
2. B20  0.0251 KA relative to UGCAUGU
3. B27  0.0216 KA relative to UGCAUGU
4. B22  0.0175 KA relative to UGCAUGU
5. B7  0.0174 KA relative to UGCAUGU
6. B12  0.0159 KA relative to UGCAUGU
7. B14  0.0153 KA relative to UGCAUGU
8. B8  0.0139 KA relative to UGCAUGU
9. B29  0.0139 KA relative to UGCAUGU
10. B26  0.0123 KA relative to UGCAUGU
11. B11  0.0115 KA relative to UGCAUGU
12. B13  0.0113 KA relative to UGCAUGU
13. B23  0.0113 KA relative to UGCAUGU
14. B17  0.0112 KA relative to UGCAUGU
15. B9  0.00993 KA relative to UGCAUGU
16. B25  0.00834 KA relative to UGCAUGU
17. B5  0.00821 KA relative to UGCAUGU
18. B28  0.00732 KA relative to UGCAUGU
19. B1  0.0072 KA relative to UGCAUGU
20. B6  0.00687 KA relative to UGCAUGU
21. B18  0.00685 KA relative to UGCAUGU
22. B10  0.00651 KA relative to UGCAUGU
23. B16  0.00647 KA relative to UGCAUGU
24. B21  0.00642 KA relative to UGCAUGU
25. B30  0.00605 KA relative to UGCAUGU
26. B4  0.00526 KA relative to UGCAUGU
27. B3  0.00423 KA relative to UGCAUGU
28. B2  0.00379 KA relative to UGCAUGU
29. B19  0.00191 KA relative to UGCAUGU
30. B15  0.000646 KA relative to UGCAUGU
31. B24  0.000598 KA relative to UGCAUGU
